# Measurements reported in PubChem BioAssay AID686979 (National Center for Advancing Translational Sciences (NCATS), 2013).
# Out of some 420,000 compounds screened, about 50,000 (12%) were called active. Inconclusive results, whose numbers are uncertain, are shown with a selection of clear calls. The call rests on the fitted dose curve; in most records, active means well fitted inhibition curve with a large enough effect; inconclusive means small, poorly fitted or top-dose-only effect; inactive means flat fitted curve, though single readings scatter. No potency is given beside an inconclusive call; the fits are too rough.
# Test: qHTS for Inhibitors of human tyrosyl-DNA phosphodiesterase 1 (TDP1): qHTS in cells in presence of CPT; further: nearly all actives have a fitted effect of over 55% in size
# Settings: chicken DT40 Tdp1-/-;hTDP1 cells + 20 nM CPT, ATP luminescence, 48 h; activity change, negative = growth inhibition: at 46.2 µM (top of the series) unless noted
# Method in brief: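 Cell growth measured by CellTiter-Glo luminescence after a minimum 48 h, 37 C compound exposure with 20 nM CPT in Tdp1-knockout DT40 cells stably expressing hTDP1, seeded 400/well; qHTS titration format.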
# On the % scale 0 is the no-effect control and ±100 the full control effect; potency means the concentration at half of the fitted maximal effect; tags describe the fitted curve by direction and shape.
SMILES,Potency,"activity change, negative = growth inhibition"
Cc1cc(C(=O)N(Cc2nnc(-c3ccc(Cl)cc3)o2)C(C)C)c2ccccc2n1,"inconclusive [inhibitor, single point]",
COc1ccc(S(=O)(=O)NCC(c2ccco2)N2CCOCC2)cc1OC (centres undefined),,inactive: -22.7%
Cc1cccc(C(=O)NCc2ccco2)c1,,inconclusive: -31.6% [inhibitor]
CCc1cc(C(=O)Nc2cnn(Cc3ccccc3C)c2)no1,"inconclusive [inhibitor, single point]",
CCOc1ccc(N2C(=O)CS/C2=C(\C(Cl)=C(Cl)Cl)[N+](=O)[O-])cc1,"inconclusive [inhibitor, single point]",
O=C(Oc1ccc(/C=N/NC(=O)c2ccccc2F)cc1)c1ccccc1,active: 9.2 µM,
CCCCn1c(N)c(N(CCOC)C(=O)CCS(=O)(=O)c2ccc(Cl)cc2)c(=O)[nH]c1=O,,inactive: -9.01%
CCOc1ccccc1N(C)C(=O)c1cn(CC)c(=O)c2cc(OC)c(OC)cc12,,inconclusive: -34% [inhibitor]
O=C(Nc1sc2c(c1C(=O)NCC1CCCO1)CCC2)c1cc(=O)c2ccccc2o1 (centres undefined),,inactive: -24.2%
CC#Cc1cc2c(cc1O)CCC1C2CCC2(C)C(O)CCC12 (centres undefined),active: 2.91 µM,
CN1C(=O)C(O)(CC(=O)/C=C/C=C/c2ccccc2)c2ccccc21 (centres undefined),"inconclusive [inhibitor, single point]",
C=C1CCC[C@]2(C)C[C@H]3OC(=O)C(CNCCN(C)C)[C@H]3CC12 (some centres undefined),"inconclusive [inhibitor, single point]",
Nn1c(SCC(=O)NC2CCS(=O)(=O)C2)nnc1-c1ccco1 (centres undefined),,inactive: 30.3%
COC(=O)c1ccccc1NC(=O)Cn1c(-c2nonc2N)nc2ccccc21,active: 0.794 µM,
O=C(Nc1ccccc1C(F)(F)F)N1CCN(C(c2ccccc2)c2ccccc2)CC1,"inconclusive [inhibitor, single point]",
O=C(NCc1ccccc1)C(c1ccco1)N1CCN(c2ccccc2F)CC1 (centres undefined),"inconclusive [inhibitor, single point]",
Cc1ccc(OCC(=O)N/N=C/c2ccncc2)cc1C,,inactive: 2.44%
CCOc1ccc(C2CC(=O)Nc3c2c(=O)nc(SCc2ccccc2C)n3C)cc1OC (centres undefined),active: 9.2 µM,
Cc1c(C(=O)N(C)C)sc(NC(=O)c2cc([N+](=O)[O-])cc([N+](=O)[O-])c2)c1C#N,,inactive: -6.02%
CC1(C(=O)NS(=O)(=O)C2CC2)CCCN(C(=O)c2cccs2)C1 (centres undefined),active: 5.17 µM,
CCOC(CNc1c([N+](=O)[O-])c(=O)n(C)c(=O)n1C)OCC,,inactive: -3.56%
CC(=O)c1ccc(OCCCC(=O)N2CCN(S(=O)(=O)c3cc(C)ccc3C)CC2)cc1,"inconclusive [inhibitor, single point]",
CCOC(=O)c1c(S(=O)(=O)N2CCCC(C(=O)Nc3cccc(C)n3)C2)c(C)n(C)c1C (centres undefined),"inconclusive [inhibitor, single point]",
O=C(Nc1ccc(S(=O)(=O)NCc2ccco2)cc1)c1cccc(F)c1,"inconclusive [inhibitor, single point]",
Cc1cccn2c(=O)c3cc(C(=O)NC(C)c4ccccc4)c(=N)n(CCCO)c3nc12 (centres undefined),"inconclusive [inhibitor, single point]",

SMILES,Potency,"activity change, negative = growth inhibition"
O=C(CO)[C@@H](O)[C@H](O)[C@@H](O)C(=O)O,,inactive: 13.9%
O=C(COC(=O)c1n[nH]c(=O)c2ccccc12)NCc1ccccc1,active: 11.6 µM,
Cc1cc(C)nc(SSc2nc(C)cc(C)n2)n1,"inconclusive [inhibitor, single point]",
N#Cc1c(NC(=O)CCCN2C(=O)c3ccccc3C2=O)oc(-c2ccccc2)c1-c1ccccc1,"inconclusive [inhibitor, single point]",
CCCCNc1nc(Nc2ccc(C)c(Cl)c2)c2cnn(C)c2n1,active: 23.1 µM,
COc1cc(C(=O)N/N=C(\C)c2ccccn2)cc(OC)c1OC,active: 11.6 µM,
Cc1nc(NCc2ccccn2)c2c3c(sc2n1)CCCC3,"inconclusive [inhibitor, single point]",
CCOC(=O)c1c(C)[nH]c(C)c1S(=O)(=O)N1CCCC(C(=O)N2CCN(c3ccccc3)CC2)C1 (centres undefined),"inconclusive [inhibitor, partial curve]",
Cc1ccc(NC(=O)c2cc(-c3ccccc3O)n[nH]2)cc1Cl,,inactive: 6.87%
COc1ccc2cc(C3CC(c4ccco4)=NN3S(C)(=O)=O)c(Cl)nc2c1 (centres undefined),"inconclusive [inhibitor, single point]",
O=C(Cn1nnc(-c2ccccc2Cl)n1)Nc1ccc(Br)cc1,,inactive: -11.2%
COc1ccc2nc(C)cc(N/N=C/c3cccc(OC)c3O)c2c1,"inconclusive [inhibitor, single point]",
Cc1cccc(C)c1OCC(=O)NNC(=O)CNC(=O)c1ccc(OC(F)F)cc1,,inactive: -17%
C=CCNc1nc2ccccc2nc1NS(=O)(=O)c1ccc(F)cc1,"inconclusive [inhibitor, single point]",
O=C(Nc1ccc(F)c(Cl)c1)c1cccnc1,"inconclusive [inhibitor, single point]",
O=C(O)c1ccc(NCc2cccnc2)c([N+](=O)[O-])c1,,inactive: -4.71%
Cc1ccccc1OCCCC(=O)Nc1nncs1,,inactive: -2.04%
COc1ccc(C(=O)NCCn2cc(SCC(=O)Nc3nnc(C)s3)c3ccccc32)cc1,"inconclusive [inhibitor, single point]",
CN(CC(=O)Nc1cccc(F)c1)C(=O)CCc1nc2cc(S(=O)(=O)N3CCOCC3)ccc2n1C,,inactive: 1.94%
COc1ccc(N2CCN(C(=O)c3cc([N+](=O)[O-])ccc3N3CCN(CCO)CC3)CC2)cc1,,inactive: -6.58%
OC(CNCCCCNCC(O)C(F)(F)F)C(F)(F)F (centres undefined),,inactive: 2.11%
CCN1C[C@@H]2[C@@H]3C(=O)N(C)C(=O)[C@@H]3[C@](Cc3ccccc3)(C(=O)OC)N2C1=NC1CCCCC1,"inconclusive [inhibitor, single point]",
CC1CCC(NC(=O)CN(C)CC(=O)Nc2ccc(F)cc2)CC1 (centres undefined),,inactive: -18.3%
COC(C(=O)Nc1ccnn1C1CCN(Cc2ccc(Cl)s2)CC1)c1ccccc1 (centres undefined),"inconclusive [inhibitor, single point]",
CCOc1ccc(CN2CCc3nc(Nc4ccc(OC)cc4OC)ncc3C2)cc1,active: 20.6 µM,

SMILES,Potency,"activity change, negative = growth inhibition"
O=c1c([N+](=O)[O-])cn(Cc2ccccc2)c(=O)n1Cc1ccccc1,"inconclusive [inhibitor, partial curve]",
C=CCOc1nc2c(c(=O)n(C)c(=O)n2C)n1Cc1ccc(Cl)cc1,active: 16.4 µM,
CC(C)OC(=O)CSc1nnc(-c2ccc(O)cc2)n1Cc1ccccc1,,inactive: -12.1%
CC(C)n1c(O)c(N=NC(=O)C2COc3ccccc3O2)c2ccccc21 (centres undefined),"inconclusive [inhibitor, single point]",
N#Cc1nc(Cc2cccc3ccccc23)oc1N1CCN(c2ccccc2)CC1,"inconclusive [inhibitor, full curve, poor fit]",
COC(CNC(=O)c1cccnc1)OC,,inactive: 12.6%
CC(=O)Nc1cccc(Oc2nc(NCCN(C)C)nc3ccsc23)c1,,inactive: -7.81%
COc1ccc(NC(=O)c2c(-c3ccc(C)cc3)nnc3ccccc23)c(OC)c1,active: 18.4 µM,
CCOC(=O)c1c(-c2ccc(C)cc2)csc1NC(=O)C1CCCO1 (centres undefined),"inconclusive [inhibitor, single point]",
Cc1ccc2sc(NC(=O)c3ccc4c(c3)OCCO4)nc2c1C,"inconclusive [inhibitor, single point]",
COc1ccc(NC(=O)CN2c3cccc4cccc(c34)S2(=O)=O)c(OC)c1,"inconclusive [inhibitor, single point]",
O=C(Nc1ccccc1Cl)c1ccc2nccnc2c1,"inconclusive [inhibitor, single point]",
O=[N+]([O-])c1ccc(Sc2cccc3cccnc23)c2cccnc12,active: 18.4 µM,
CCC(=O)Nc1cccc(C(=O)OCc2cc(=O)n3nc(CC)sc3n2)c1,"inconclusive [inhibitor, full curve]",
CCN(CC)CCCNC(=O)c1nn(C)c2c1CS(=O)(=O)c1ccccc1-2,,inactive: 15.2%
CC(=O)Oc1ccccc1C(=O)N1CCN(S(=O)(=O)c2ccc3ccccc3c2)CC1,"inconclusive [inhibitor, single point]",
CCN(CC)C(=O)CN(c1cccc(OC)c1)S(=O)(=O)c1ccc(C)cc1,"inconclusive [inhibitor, single point]",
COc1cccc(CN2CCC(Oc3ccc(C(=O)NCc4ccccn4)cc3)CC2)c1O,,inactive: -15%
COc1ccc2c(c1)c1c(c(=O)n(CCc3ccccc3)c(=O)n1Cc1ccc(F)cc1)n2C,,inactive: -7.64%
CCOC(=O)c1c(CN2CCC(C)CC2)n(C)c2cc(Br)c(OC)cc12,"inconclusive [inhibitor, single point]",
Cc1ccc(-n2c(SCc3ccc([N+](=O)[O-])cc3)nc3ccccc3c2=O)cc1,"inconclusive [inhibitor, partial curve]",
O=[N+]([O-])c1cccc2c(S(=O)(=O)N3CCOCC3)cccc12,"inconclusive [inhibitor, single point]",
COC(=O)C1=C(NC(=O)c2ccccc2[N+](=O)[O-])CCS1,,inactive: -0.981%
CCOC(=O)c1[nH]c2ccc(OC)cc2c1NS(=O)(=O)c1ccc(OC)cc1OC,,inactive: -10.2%
